Test results reported in PubChem BioAssay AID624296 (National Center for Advancing Translational Sciences (NCATS), 2012).
Screen size: about 350,000 compounds; about 9,900 (2.8%) were called active. The inconclusive results got no clear call from the source; some entries with a clear call stand among them for comparison. Calls come from the whole dose curve; as a rule, active = well fitted activation curve with a large enough effect; inconclusive = small, poorly fitted or top-dose-only effect; inactive = no such curve, though single readings can be large or run the other way. No potency is given beside an inconclusive call; the fits are too rough.

Assay: A quantitative high throughput screen for small molecules that induce DNA re-replication in MCF 10a normal breast cells. For activity, positive = re-replication: % of control where 0% means no effect. Note: nearly all actives have a fitted effect of over 50% in size.
Settings: MCF 10A DNA re-replication, Hoechst nuclear intensity, 48 h; activity, positive = re-replication: at 46.1 µM (top of the series)
Potency is the fitted concentration of half-maximal effect; tags give direction and shape of the fitted curve.

Row | Compound | activity, positive = re-replication | Potency
1 | O=C(OCc1cc(=O)n2ccsc2n1)C1(c2ccc(Cl)cc2)CC1 | inactive: 3.97% | –
2 | COc1cc(CNCc2ccc(Br)cc2)cc(OC)c1 | – | inconclusive [activator, partial curve, poor fit]
3 | Cc1sc(NC(=O)c2cccs2)nc1-c1ccccc1 | – | inconclusive [activator, partial curve]
4 | Cc1ccc(C([O-])=C(C(=S)NCc2ccccc2)[n+]2cccc(CO)c2)cc1[N+](=O)[O-] | inactive: -12% | –
5 | CC1(C)N=C(SCC(=O)Nc2ccc(Cl)cc2)C(c2ccccc2)=N1 | inactive: 6.6% | –
6 | O=C(OCC(=O)N1CCc2ccccc21)c1c2c(nc3ccccc13)CCCC2 | – | inconclusive [activator, partial curve]
7 | Cc1ccc(NC(=O)CSc2nc(=O)n(Cc3ccncc3)c3c2CCC3)c(C)c1 | inactive: 7.21% | –
8 | O=C(O)c1ccc(-c2ccccc2C(F)(F)F)o1 | – | inconclusive [activator, partial curve, poor fit]
9 | Cc1ccc(-c2nnn(CC(=O)N(c3cnc4ccccc4c3)C(C(=O)NC3CCCC3)c3ccncc3)n2)o1 (stereo not given) | – | inconclusive [activator, single point]
10 | C=CCCC(=O)Nc1ccc(Br)cn1 | – | active: 9.2 µM
11 | CSc1ccccc1OCc1cc(C(=O)N(C)Cc2nonc2C)no1 | inconclusive: 79% [activator] | –
12 | Nc1nc(NCc2ccco2)nc(N2CCCC2)c1[N+](=O)[O-] | inactive: -0.144% | –
13 | Cc1c(Cl)cccc1N(CC(=O)NC(C)c1ccccc1)S(C)(=O)=O (stereo not given) | – | inconclusive [activator, single point]
14 | CCOC(=O)c1cc2c(=O)n3cccc(C)c3nc2n(CCOC)c1=NC(C)=O | – | active: 3.66 µM
15 | CCNc1ccc(C(=O)N/N=C/c2c(C)nn(-c3ccccc3)c2N2CCCC2)cc1[N+](=O)[O-] | inactive: 5.02% | –
16 | CCn1c(C)cc(C)c(C#N)c1=O | – | inconclusive [activator, single point]
17 | CCNC(=O)CN(c1ccc(CC)cc1)S(C)(=O)=O | inactive: -1.52% | –
18 | CC(=O)c1ccc(N2CCN(C(=O)c3ccc4[nH]c(C)c(C)c4c3)CC2)cc1 | – | inconclusive [activator, partial curve, poor fit]
19 | COCCn1c(SCC(=O)Nc2ccccc2F)nc2c([nH]c3ccccc32)c1=O | – | inconclusive [activator, single point]
20 | CCOc1ccc(CN2CCN(S(=O)(=O)c3ccc(NC(C)=O)cc3)CC2)cc1 | – | inconclusive [activator, single point]
21 | COc1ccc(-c2noc(CN(C(=O)c3ccc4c(c3)OCO4)C(C)C)n2)cc1 | inactive: -0.305% | –
22 | CCCCCOC(=O)Cn1c(N2CCCCCC2)nc2c1c(=O)[nH]c(=O)n2C | inactive: -8.28% | –
23 | c1ccc2c(COn3nnc4ccccc43)cccc2c1 | inactive: 6.01% | –
24 | Cc1nc(N)nc(N)c1-c1ccc(Cl)c(Cl)c1 | inactive: 28% | –
25 | CCCCNC(=S)NC(=O)c1ccccc1Br | inactive: -2.96% | –

Row | Compound | activity, positive = re-replication | Potency
26 | O=C(O)c1cc(=O)[nH]c(=O)[nH]1 | inactive: 1.22% | –
27 | Cc1nn(-c2ccccc2)c(N2CCCC2)c1/C=N/NC(=O)c1ccccc1O | – | inconclusive [activator, single point]
28 | O=c1c2ccccc2oc2cc(-c3ccc4[nH]ccc4c3)ccc12 | – | inconclusive [activator, full curve, poor fit]
29 | COc1cc(-c2cc(C(=O)Nc3cccc(C(C)=O)c3)c3ccccc3n2)cc(OC)c1OC | – | inconclusive [activator, partial curve]
30 | Cc1cc2c(cc1C)C(c1ccccc1F)CC(=O)N2 (stereo not given) | inactive: 24% | –
31 | CC12CCC(C(=O)NNc3ccccc3)(C(=O)C1=O)C2(C)C (stereo not given) | – | active: 16.4 µM
32 | CC(=O)Nc1ccc(NC(=O)CCC(=O)Oc2ccc(C)cc2)cc1 | inactive: 1.19% | –
33 | CCCSc1cc(N2CCN(C)CC2)nc(-c2ccc(OC)cc2)n1 | – | inconclusive [activator, single point]
34 | CC(C)(C)C(=O)Nc1ccccc1C(=O)OCC(=O)c1ccc2c(c1)OCCO2 | – | inconclusive [activator, partial curve, poor fit]
35 | Cc1ccc(S(=O)(=O)N(C)CC(=O)OCC(=O)NC(c2ccccc2)c2ccccc2)cc1 | inactive: 1.02% | –
36 | COc1cccc(C(=O)NCCS(=O)(=O)NCc2ccco2)c1 | inactive: -0.38% | –
37 | CC(=O)c1c(C)[nH]c(C(=O)OCC(=O)Nc2c(C)cccc2C)c1C | inactive: 7.67% | –
38 | O=C1CC(c2cc(F)ccc2F)c2cc3c(cc2N1)CCC3 (stereo not given) | – | inconclusive [activator, partial curve, poor fit]
39 | COC(=O)c1sccc1NC(=O)Nc1ccccc1Cl | inactive: 4.02% | –
40 | Cc1noc(C)c1S(=O)(=O)N(C)C[C@H]1Oc2c(NC(=O)NC(C)C)cccc2C(=O)N([C@H](C)CO)C[C@@H]1C | – | inconclusive [activator, single point]
41 | COc1ccc(OC)c(S(=O)(=O)N2CCC(C(=O)NC3CCCC3)CC2)c1 | inactive: -14.5% | –
42 | O=C1CC(N2CCN(Cc3ccccc3)CC2)C(=O)N1CCc1ccccc1 (stereo not given) | – | active: 25.9 µM
43 | O=C(Cc1cccs1)NCCSc1c(-c2ccc(Cl)cc2)[nH]c2ccccc12 | – | active: 20.6 µM
44 | Cn1c(-c2cccc(OCc3ccccc3)c2)nc2c1c(=O)[nH]c(=O)n2Cc1ccccc1 | – | inconclusive [activator, single point]
45 | O=C(Cn1c(=O)sc2ccccc21)Nc1nc2c(s1)CCCC2 | – | inconclusive [activator, partial curve]
46 | Cc1cccc(NC(=S)N(C)Cc2cn(C)c3ccccc23)c1 | inactive: 22.9% | –
47 | CCNC(=O)Nc1nc2ccccc2s1 | inactive: -1.3% | –
48 | COc1ccccc1-n1cnc2cc(C(=O)NCCCN3CCOCC3)ccc21 | inactive: 0.383% | –
49 | CSc1ccc(S(=O)(=O)NCC(=O)OCC(=O)N(Cc2ccccc2)C(C)C)cc1[N+](=O)[O-] | – | inconclusive [activator, single point]
50 | CSCCC(NS(=O)(=O)c1ccc(C)cc1)C(=O)NNC(=O)c1csc(N2CCOCC2)n1 (stereo not given) | inactive: -0.0984% | –
